“And” between values parts separate entries of the source, which are not always exact repeats. Equal values may be shown once. Among all 410,000 compounds or so, about 5,000 (1.2%) were called active. The inconclusive results got no clear call from the source; some entries with a clear call stand among them for comparison. Calls come from the whole dose curve; as a rule, active = well fitted inhibition curve with a large enough effect; inconclusive = small, poorly fitted or top-dose-only effect; inactive = no such curve, though single readings can be large or run the other way. Where the call is inconclusive, the potency comes from a doubtful curve fit.
Assay: qHTS for Inhibitors of TGF-b; note: nearly all actives have a fitted effect of over 65% in size
Details: HepG2 CAGA-GFP TGF-b/SMAD3 reporter, GFP fluorescence, 18 h, TGF-beta stimulated, 500 pg/mL final; series mostly up to 46.1 µM; activity, negative = inhibition: at the top concentration
Method in brief: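 TGF-beta reporter screen: HEPG2 CAGA-GFP, 1% FBS, 500 pg/mL TGF-beta final, 18 h; per-cell GFP summed per well; curves fitted and categorized by class.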
% is set by controls: 0 for no effect and ±100 for the full control effect; potency is the fitted concentration of half-maximal effect; tags give direction and shape of the fitted curve.

Question: For `Cc1ccc(S(=O)(=O)N2CCOCC2)cc1NC(=O)CSc1nnc2cc(C)c3ccccc3n12`, which “activity, negative = inhibition” value is on record?
Answer: inactive: -16%

Question: For `Cc1cccc(-n2ccnc2CN2CCC(CO)(Cc3ccccc3)CC2)c1`, which “activity, negative = inhibition” value is on record?
Answer: inactive: -12.9%

Question: With `CCCC(=O)Nc1cc(C(=O)NCc2ccccc2)ccc1S(=O)(=O)c1ccc(Cl)cc1` as the compound, how does the “activity, negative = inhibition” value read?
Answer: inactive: -17.3%

Question: For `CCOC(=O)c1ccc(N2C(=O)c3n[nH]c(-c4ccco4)c3C2c2ccc(OCC)cc2)cc1` (configuration not stated), which Potency is on record?
Answer: active: 7.08 µM

Question: For `Cc1ccc(S(=O)(=O)Nc2cccc3c2O[C@H](CN(C)C(=O)Nc2ccc(C(F)(F)F)cc2)[C@@H](C)CN([C@H](C)CO)C3=O)cc1`, which Potency is on record?
Answer: inconclusive: 35.5 µM [inhibitor, single point]

Question: For `CCOc1ccc(C(C(=O)Nc2ccc(F)cc2)N(C(=O)Cn2nnc3ccccc32)C2CC2)cc1` (configuration not stated), which Potency is on record?
Answer: inconclusive: 11.2 µM [inhibitor, single point]

Question: For `CCN(Cc1nc2ccccc2c(=O)[nH]1)C(=O)COc1ccccc1-c1ccccc1`, which Potency is on record?
Answer: inconclusive: 35.5 µM [inhibitor, single point]

Question: Which Potency does the source give for `Cc1ccc(S(=O)(=O)N2CCCc3cc(NS(=O)(=O)c4cc(F)ccc4F)ccc32)cc1` here?
Answer: inconclusive: 15.8 µM [inhibitor, single point]

Question: With `O=S(=O)(NCc1ccc(F)cc1)c1ccc(Br)cc1Br` as the compound, how does the Potency read?
Answer: inconclusive: 12.6 µM [inhibitor, partial curve, poor fit] and inconclusive: 7.08 µM [inhibitor, partial curve, poor fit]

Question: For `CCOc1ccc(CN(C)C(=O)CN2C(=O)NC(c3ccccc3)(c3ccccc3)C2=O)cc1`, which Potency is on record?
Answer: inconclusive: 22.4 µM [inhibitor, single point]

Question: With `Cc1ccc(CC2(C)C(=O)Nc3c(Cl)ccc(Cl)c32)cc1` (configuration not stated) as the compound, how does the Potency read?
Answer: inconclusive: 20 µM [inhibitor, single point]

Question: For `CN1CCN(CCCNC(=O)c2cc3c(=O)n(C)c4ccccc4c3s2)CC1`, which “activity, negative = inhibition” value is on record?
Answer: inactive: 3.41%

Question: For `O=C(CN1C(=O)CCC1=O)Nc1ccc(Cc2ccc(NC(=O)CN3C(=O)CCC3=O)cc2)cc1`, which “activity, negative = inhibition” value is on record?
Answer: inactive: -5.78%

Question: With `CS(=O)(=O)c1ccc(-c2sc3ccccc3c2C(=O)N2CCN(c3ccc(F)cc3)CC2)cc1` as the compound, how does the Potency read?
Answer: inconclusive: 35.5 µM [inhibitor, single point]

Question: Which Potency does the source give for `Cc1cccc(NC(=O)CSc2cc(C)c(C#N)c3nc4ccccc4n23)c1` here?
Answer: inconclusive: 6.31 µM [inhibitor, single point]

Question: With `CC(NO)C(C)(C)NO` (configuration not stated) as the compound, how does the “activity, negative = inhibition” value read?
Answer: inactive: -4.09%

Question: Which Potency does the source give for `Cc1noc(C)c1S(=O)(=O)N(C)C[C@H]1Oc2c(NC(=O)NC3CCCCC3)cccc2C(=O)N([C@H](C)CO)C[C@@H]1C` here?
Answer: inconclusive: 35.5 µM [inhibitor, single point]

Question: Which Potency does the source give for `Cc1ccc(S(=O)(=O)N2CCN3CCCC3C2)cc1` (configuration not stated) here?
Answer: inconclusive: 28.2 µM [inhibitor, single point]

Question: With `CCN(CC)S(=O)(=O)c1ccc(N2CCN(C)CC2)c(NC(=O)Nc2ccc(C)cc2)c1` as the compound, how does the Potency read?
Answer: inconclusive: 25.1 µM [inhibitor, single point]

Question: For `O=C(Nc1ccccc1N1CCCC1)c1cccc(F)c1`, which “activity, negative = inhibition” value is on record?
Answer: inactive: 2.42%

Question: For `COC(=O)c1ccc(S(=O)(=O)N2CCCN(Cc3ccc(F)cc3)CC2)n1C`, which Potency is on record?
Answer: inconclusive: 14.1 µM [inhibitor, single point]

Question: For `Cc1cccc(-c2nc3ccccc3n2Cc2ccccc2)c1`, which Potency is on record?
Answer: inconclusive: 22.4 µM [inhibitor, single point]

Question: For `O=C(O)c1cccc(CSc2nnc(COc3ccccc3)o2)c1`, which Potency is on record?
Answer: inconclusive: 5.62 µM [inhibitor, single point]

Question: With `Cc1nnc(SC(C)C(=O)NC2CCCCC2)s1` (configuration not stated) as the compound, how does the “activity, negative = inhibition” value read?
Answer: inactive: -6.81%

Question: Which Potency does the source give for `COc1ccc(NC(=O)c2sc(=O)n(Cc3ccc(SC)cc3)c2C)cc1OC` here?
Answer: inconclusive: 15.8 µM [inhibitor, single point]

Question: For `CCOC(=O)N1CCc2c(sc(NCc3cccc(F)c3)c2C(=O)Nc2ccc(OC)cc2OC)C1`, which Potency is on record?
Answer: inconclusive: 35.5 µM [inhibitor, single point]

Question: With `COc1ccccc1CNc1nc(NCc2ccc(NC(C)=O)cc2)c2sccc2n1` as the compound, how does the Potency read?
Answer: active: 17.8 µM

Question: With `CCCCNc1nc(-c2ccccc2)c(C(=O)OCC)cc1C#N` as the compound, how does the Potency read?
Answer: inconclusive: 11.2 µM [inhibitor, partial curve, poor fit]

Question: With `CCN(CC)c1ccc2cc(C=O)c(=O)oc2c1` as the compound, how does the Potency read?
Answer: inconclusive: 35.5 µM [inhibitor, single point]

Question: With `O=C(C1CCC1)N1CCCc2cc(S(=O)(=O)N3CCN(c4ccccc4)CC3)ccc21` as the compound, how does the Potency read?
Answer: inconclusive: 25.1 µM [inhibitor, single point]

Question: For `COC(=O)N/N=C/c1ccc(-c2cc(Cl)cc(Cl)c2)o1`, which “activity, negative = inhibition” value is on record?
Answer: inactive: 10.3%

Question: Which “activity, negative = inhibition” value does the source give for `CN(c1ccccc1C(N)=O)S(=O)(=O)c1ccccc1` here?
Answer: inactive: 16.2%

Question: With `CCc1nnc(NC(=O)c2ccc(S(=O)(=O)N(CC(C)C)CC(C)C)cc2)o1` as the compound, how does the Potency read?
Answer: inconclusive: 20 µM [inhibitor, single point]

Question: Which Potency does the source give for `Cc1nc2ccc(S(=O)(=O)N(CC(=O)Nc3cccc(Cl)c3)Cc3ccccc3)cc2s1` here?
Answer: inconclusive: 22.4 µM [inhibitor, single point]

Question: With `Cc1cccc(CNC(=O)Nc2nnc([C@H]3C[C@H](O)[C@@H](CO)O3)s2)c1` as the compound, how does the “activity, negative = inhibition” value read?
Answer: inactive: 8.48%

Question: Which Potency does the source give for `CSc1ccccc1NS(=O)(=O)c1ccc2c(c1)OCCO2` here?
Answer: inconclusive: 10 µM [inhibitor, partial curve, poor fit]

Question: For `Cc1cccc(C)c1Nc1nnc(SCC(=O)c2ccc(Br)s2)s1`, which Potency is on record?
Answer: inconclusive: 7.94 µM [inhibitor, partial curve, poor fit]

Question: Which Potency does the source give for `O=C(NCc1ccccn1)C1CCCCC1` here?
Answer: inconclusive: 12.6 µM [inhibitor, partial curve, poor fit]

Question: Which Potency does the source give for `CCn1c(N2CCN(S(=O)(=O)c3ccc(OC)cc3)CC2)nc2ccccc21` here?
Answer: inconclusive: 15.8 µM [inhibitor, single point]

Question: With `Cc1cccc(OCCCC(=O)Nc2ccc(Cl)c(S(=O)(=O)N3CCOCC3)c2)c1` as the compound, how does the Potency read?
Answer: inconclusive: 12.6 µM [inhibitor, partial curve, poor fit]

Question: For `CCOC(=O)c1ccc(NC(=O)C2(c3ccc(Cl)cc3)CCCC2)cc1`, which Potency is on record?
Answer: inconclusive: 35.5 µM [inhibitor, single point]

Question: With `CC1CCN(CCCOc2ccc(OCc3ccccc3)cc2)CC1` as the compound, how does the “activity, negative = inhibition” value read?
Answer: inactive: -6.44%

Question: With `O=c1c(S(=O)(=O)c2ccc(Cl)cc2)cn(Cc2ccccc2)c2ccc(F)cc12` as the compound, how does the “activity, negative = inhibition” value read?
Answer: inactive: 0.858%

Question: For `CC1(C)NC(=O)N(CCOCCOc2ccc3ccccc3c2Br)C1=O`, which “activity, negative = inhibition” value is on record?
Answer: inactive: -18%

Question: With `COc1ccccc1N1CCN(C(=O)c2ccc(-c3nc4ccccc4s3)o2)CC1` as the compound, how does the Potency read?
Answer: inconclusive: 22.4 µM [inhibitor, single point]

Question: Which Potency does the source give for `COC(=O)c1ccccc1NC(=O)c1ccc(COc2cc(C)cc(C)c2)o1` here?
Answer: inactive

Question: With `N/C(=N\N=C/c1ccc(F)cc1)N/N=C\c1ccc(F)cc1` as the compound, how does the Potency read?
Answer: inconclusive: 28.2 µM [inhibitor, single point]

Question: With `Cc1nc2cccnc2n1C1CCN(S(=O)(=O)N(C)C)CC1` as the compound, how does the “activity, negative = inhibition” value read?
Answer: inactive: 3.39%

Question: With `CCOC(=O)CSc1nnc2n(Cc3ccccc3)c(=O)c3c4c(sc3n12)CCC4` as the compound, how does the Potency read?
Answer: inconclusive: 20 µM [inhibitor, single point]

Question: Which Potency does the source give for `CCOC(=O)C1(C)CCCN1C(=O)c1ccc(OC)c(F)c1` (configuration not stated) here?
Answer: inconclusive: 35.5 µM [inhibitor, single point]

Question: For `COc1ccccc1C1=NC(c2ccc(C)cc2)N=C1C` (configuration not stated), which Potency is on record?
Answer: inconclusive: 22.4 µM [inhibitor, single point]

Question: Which Potency does the source give for `CC(=O)NN1C(=O)c2ccccc2NC1c1cccc([N+](=O)[O-])c1` (configuration not stated) here?
Answer: inconclusive: 17.8 µM [inhibitor, single point]

Question: For `O=C(Nc1ccc(CN2CCCCC2)cc1)c1cc(Br)ccc1Cl`, which “activity, negative = inhibition” value is on record?
Answer: inactive: -0.424%

Question: For `O=C(N/N=C/c1cc(Cl)ccc1O)c1ccncc1`, which Potency is on record?
Answer: inconclusive: 10 µM [inhibitor, partial curve]

Question: With `Cc1cc(-c2csc(Nc3ccccn3)n2)ccc1F` as the compound, how does the Potency read?
Answer: inconclusive: 35.5 µM [inhibitor, single point]

Question: For `C[C@H]1CN([C@@H](C)CO)C(=O)Cc2cc(NS(C)(=O)=O)ccc2O[C@@H]1CN(C)Cc1ccc(Cl)c(Cl)c1`, which Potency is on record?
Answer: active: 11.2 µM

Question: Which Potency does the source give for `O=C(NC1CC1)C1CCN(C(=O)c2ccc(Cl)cc2)CC1` here?
Answer: inconclusive: 35.5 µM [inhibitor, single point]

Question: With `CS(=O)(=O)c1ccc(Cl)c(NC(=O)COC(=O)c2ccc(-n3cnnn3)cc2)c1` as the compound, how does the “activity, negative = inhibition” value read?
Answer: inactive: -18%

Question: For `Cc1cccc(Oc2cc(NC(=O)c3ccccc3)cc([N+](=O)[O-])c2)c1`, which Potency is on record?
Answer: inconclusive: 10 µM [inhibitor, partial curve, poor fit]

Question: With `O=C(Nc1ccc(Cl)cn1)c1ccc(COc2ccccc2Br)o1` as the compound, how does the Potency read?
Answer: inconclusive: 35.5 µM [inhibitor, single point]

Question: For `CCOC(=O)c1c(Nc2ccc(F)cc2)nnc(-c2ccccc2)c1-c1ccccc1`, which Potency is on record?
Answer: inconclusive: 35.5 µM [inhibitor, single point]

Question: Which Potency does the source give for `Cn1c(Sc2ccccc2Cl)c(C=O)c2ccccc21` here?
Answer: inconclusive: 35.5 µM [inhibitor, single point]

Question: For `Cc1ccc(-c2csc(NC(=O)c3cccc(C)c3)c2C(=O)O)cc1`, which “activity, negative = inhibition” value is on record?
Answer: inactive: 3.66%

Question: Which Potency does the source give for `CC1CCC/C(=N\NC(=O)c2ccncc2)C1` (configuration not stated) here?
Answer: inconclusive: 4.47 µM [inhibitor, single point]

Question: For `Cc1ccc(CN2CCN(Cc3c(C)nn(-c4ccc(F)cc4)c3C)CC2CCO)o1` (configuration not stated), which “activity, negative = inhibition” value is on record?
Answer: inactive: -0.709%

Question: Which Potency does the source give for `CCCCOc1ccc(CNC(=O)Cc2ccc(NC(=O)N3CCCCc4ccccc43)cc2)cc1` here?
Answer: inconclusive: 35.5 µM [inhibitor, single point]

Question: With `COc1ccc2c(c1)c(=Cc1ccc(N(C)C)cc1)c1cc(-c3ccccc3)[n+](C)n12` as the compound, how does the Potency read?
Answer: active: 5.01 µM

From PubChem BioAssay AID588855 (National Center for Advancing Translational Sciences (NCATS), 2011)
